Test results: the supplement of paper PMC8728848
Some of the results follow.

Legend:
Test in all cases: glycan array binding signal (z-score within array); higher = stronger binding
Details in all cases: glycan notation: IUPAC condensed, linker removed
[1] = target: Gal3S(b1-3)[Fuc(a1-4)]GlcNAc
How it was run: (§1)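 The binding signal is a Z-score computed within each array. Data were drawn from 3228 arrays in the Consortium for Functional Glycomics database, restricted to those with a known protein sequence. Scores were averaged over arrays of the same protein sequence at different concentrations or buffers, and over linkers, and negative values can be taken as non-binding.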

[2] = target: Gal3S(b1-4)Glc
How it was run: as §1

[3] = target: Gal3S(b1-4)Glc6S
How it was run: as §1

[4] = target: Gal3S(b1-4)GlcNAc
How it was run: as §1

[5] = target: Gal3S(b1-4)[Fuc(a1-3)]Glc6S
How it was run: as §1

[6] = target: Gal3S(b1-4)[Fuc(a1-3)]GlcNAc
How it was run: as §1

[7] = target: Gal3S(b1-4)[Fuc(a1-3)]GlcNAc6S
How it was run: as §1

[8] = target: Gal3S4S(b1-4)GlcNAc
How it was run: as §1

[9] = target: Gal3S6S(b1-4)GlcNAc
How it was run: as §1

[10] = target: Gal3S6S(b1-4)GlcNAc6S
How it was run: as §1

[11] = target: Gal4S(b1-4)GlcNAc
How it was run: as §1

[12] = target: Gal4S6S(b1-4)GlcNAc
How it was run: as §1

[13] = target: Gal6P(b1-4)GlcNAc
How it was run: as §1

[14] = target: Gal6S(b1-3)GlcNAc
How it was run: as §1

[15] = target: Gal6S(b1-3)GlcNAc6S
How it was run: as §1

[16] = target: Gal6S(b1-4)Glc
How it was run: as §1

[17] = target: Gal6S(b1-4)Glc6S
How it was run: as §1

[18] = target: Gal6S(b1-4)GlcNAc
How it was run: as §1

[19] = target: Gal6S(b1-4)GlcNAc6S
How it was run: as §1

[20] = target: GalNAc(a1-3)Gal
How it was run: as §1

[21] = target: GalNAc(a1-3)GalNAc
How it was run: as §1

[22] = target: GalNAc(a1-3)GalNAc(b1-3)Gal(a1-4)Gal(b1-4)Glc
How it was run: as §1

[23] = target: GalNAc(a1-3)GalNAc(b1-3)Gal(a1-4)Gal(b1-4)GlcNAc
How it was run: as §1

[24] = target: GalNAc(b1-3)Gal
How it was run: as §1

[25] = target: GalNAc(b1-3)Gal(a1-4)Gal(b1-4)GlcNAc
How it was run: as §1

[26] = target: GalNAc(b1-3)Gal(a1-4)Gal(b1-4)GlcNAc(b1-3)Gal(b1-4)Glc
How it was run: as §1

[27] = target: GalNAc(b1-3)Gal(a1-6)Gal(b1-4)Glc
How it was run: as §1

[28] = target: GalNAc(b1-3)GalNAc
How it was run: as §1

[29] = target: GalNAc(b1-3)GlcNAc
How it was run: as §1

[30] = target: GalNAc(b1-4)Gal(b1-4)Glc
How it was run: as §1

[31] = target: GalNAc(b1-4)GlcNAc
How it was run: as §1

[32] = target: GalNAc(b1-4)GlcNAc(b1-2)Man
How it was run: as §1

[33] = target: GalNAc(b1-4)GlcNAc(b1-2)Man(a1-3)[GalNAc(b1-4)GlcNAc(b1-2)Man(a1-6)]Man(b1-4)GlcNAc(b1-4)GlcNAc
How it was run: as §1

[34] = target: GalNAc(b1-4)GlcNAc(b1-3)GalNAc(b1-4)GlcNAc
How it was run: as §1

[35] = target: GalNAc(b1-4)GlcNAc6S
How it was run: as §1

[36] = target: GalNAc(b1-6)GalNAc
How it was run: as §1

[37] = target: GalNAc3S(b1-4)GlcNAc
How it was run: as §1

[38] = target: GalNAc3S(b1-4)GlcNAc3S
How it was run: as §1

[39] = target: GalNAc3S(b1-4)[Fuc(a1-3)]GlcNAc
How it was run: as §1

[40] = target: GalNAc4S6S(b1-4)GlcNAc
How it was run: as §1

[41] = target: GalNAc6S(b1-4)GlcNAc
How it was run: as §1

[42] = target: Glc(a1-4)Glc
How it was run: as §1

[43] = target: Glc(a1-4)Glc(a1-4)Glc(a1-4)Glc
How it was run: as §1

[44] = target: Glc(a1-6)Glc(a1-6)Glc
How it was run: as §1

[45] = target: Glc(a1-6)Glc(a1-6)Glc(a1-6)Glc
How it was run: as §1

Measured: glycan array binding signal (z-score)

B1: Banana lectin (Musa acuminata) (protein)
chain: MNGAIKVGAWGGNGGSAFDMGPAYRIISVKIFSGDVVDAVDVTFTYYGKTETRHFGGSGGTPHEIVLQEGEYLVGMKGEFGNYHGVVVVGKLGFSTNKKSYGPFGNTGGTPFSLPIAAGKISGFFGRGGDFIDAIGVYLEP
-0.188: [5]
-0.193: [10] | [16] | [21] | [23] | [25] | [32] | [37] | [40]
-0.197: [8] | [19]
-0.146: [42]
-0.194: [17] | [22] | [27]
-0.17: [24]
-0.195: [11] | [12] | [14] | [15] | [20] | [30] | [34] | [35] | [36] | [43]
-0.192: [3] | [4] | [7] | [9] | [28] | [31] | [38]
-0.19: [1] | [2] | [6] | [33] | [41]
-0.187: [44]
-0.191: [13] | [18] | [39] | [45]
-0.196: [26]
-0.189: [29]
